The shares of active, inactive and inconclusive entries below differ from those in the screen. Potencies of inconclusive entries are left out as doubtful fits. More than one record can exist for a structure, and the calls need not agree. Calls of active or inactive are those of the source. Calls come from the whole dose curve; as a rule, active = well fitted inhibition curve with a large enough effect; inconclusive = small, poorly fitted or top-dose-only effect; inactive = no such curve, though single readings can be large or run the other way.
Assay: P-glycoprotein substrates identified in KB-3-1 adenocarcinoma cell line, qHTS therapeutic library screen (AID 1346986); note: nearly all actives have a fitted effect of over 60% in size;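 note: potency is for cytotoxicity meaning loss of cell viability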
Settings: KB-3-1 parental cells viability, CellTiter-Glo, 72 h; series mostly up to 44.5 µM
Method: The ATP-binding cassette transporters P-glycoprotein (P-gp) is known to limit brain penetration of many chemotherapy drugs. […] We used the CellTiter-Glo viability assay to test library compounds against the parental KB-3-1 human cervical adenocarcinoma cell line and the colchicine-selected sub-line KB-8-5-11 that over-expresses P-gp. KB-8-5-11 cells were also tested in the presence of a P-gp inhibitor (tariquidar) to assess reversability of transporter-mediated resistance. Of the tested compounds, a total of 90 P-gp substrates were identified including 55 newly identified P-gp substrates. Substrates were confirmed using an orthogonal killing assay against HEK-293 cells transfected with P-gp. As exemplars, we confirmed that AT7159 (cyclin-dependent kinase inhibitor); AT9283, (Janus kinase 2/3 inhibitor); ispinesib (kinesin spindle protein inhibitor); gedatolisib (PKI-587, phosphoinositide 3-kinase/mammalian target of rampamycin inhibitor); GSK-690693 (AKT inhibitor); and KW-2478 (heat shock protein 90 inhibitor) were substrates , and direct ATPase stimulation was assessed. ABCG2 was also found to confer high levels of resistance to AT9283, GSK-690693 and gedatolisib, while ispinesib, AT7519 and KW-2478 were weaker substrates.
The HeLa derivative cell line, KB-3-1, and its colchicine-selected, P-gp-overexpressing subline, KB-8-5-11 were maintained in DMEM with 10% FCS and Pen/Strep with glutamine at 37 degree C in 5% CO2. For KB-8-5-11 cells, colchicine was added to the medium at a concentration of 100 ng/mL. HEK-293 cells transfected with empty vector (pcDNA) or vector containing human ABCB1 (MDR-19) or ABCG2 (R-5) have been described previously (Robey, Lin, Qiu, Chan & Bates, 2011) and were maintained in EMEM supplemented with 10% FCS, Pen/Strep and glutamine with 2 mg/ml G418 to select for the expression of the transporter. Cultures were confirmed to be free of mycoplasma infection using the MycoAlert Mycoplasma Detection Kit (Lonza, Walkersville, MD). For the screen, assay medium was identical to culture medium except for KB-8-5-11 where colchicine was excluded from the medium.
All cell lines were plated into 1536-well plates at 500 cells/well in 5 uL media. Compounds were then pinned in dose-response using a 1536-head pin tool (Kalypsis, San Diego, CA) and plates were incubated at 37 degree C in 5% CO2 for an additional 72 h. CellTiter-Glo reagent (Promega) was dispensed into the wells, incubated for 5 min and luminescence was read on a ViewLux instrument (Perkin-Elmer). Cytotoxic compounds were defined as those that yielded a curve class of -1.1, -1.2, -2.1, -2.2, -2.3, or -2.4, a maximum response of >50% and an AC50 of < 10 uM. Cherry-picked hits from screening analysis were tested with both the KB pair of cell lines, and the pcDNA (empty vector control) and MDR-19 (P-gp overexpressing) pair were tested, in the absence and presence of tariquidar.
Potency is the fitted concentration of half-maximal effect; tags give direction and shape of the fitted curve.

Structure (SMILES) | Potency
CN1CCC(Nc2ncc3ncnc(Nc4ccc(F)c(Cl)c4)c3n2)CC1 | inconclusive [inhibitor, single point]
CC1C(=O)OC2C(O)C34C5CC(C(C)(C)C)C36C(OC(=O)C6O)OC4(C(=O)O5)C12O (stereo not given) | inactive
CCc1cc(Nc2nccc(-c3c(-c4ccc(OC)c(C(=O)Nc5c(F)cccc5F)c4)nc4ccccn34)n2)c(OC)cc1N1CCC(N2CCN(S(C)(=O)=O)CC2)CC1 | inconclusive [inhibitor, full curve]
COc1ccc2c3n(c(=NC(=O)c4cccnc4)nc2c1OC)CCN3 | inconclusive [inhibitor, single point]
CC1(CN2CCC(n3c(=O)[nH]c4ccccc43)CC2)OCc2ccccc2-n2cccc21 (stereo not given) | inconclusive [inhibitor, single point]
O=C1NC(=O)C(c2cnc3ccccn23)=C1c1cn2c3c(cccc13)CN(C(=O)N1CCOCC1)CC2 | active: 5.8 µM
CNNCc1ccc(C(=O)NC(C)C)cc1 | inactive
COc1cc2c(Oc3ccc4[nH]c(C)cc4c3F)ncnc2cc1OCCCN1CCCC1 | active: 23.1 µM
CC(C)Oc1cc(Nc2nc(N[C@@H](C)c3ccc(F)cn3)ncc2Cl)[nH]n1 | active: 10.3 µM
O=C(O)c1ccc(Nc2ncc3c(n2)-c2ccc(Cl)cc2C(c2c(F)cccc2F)=NC3)cc1 | active: 0.82 µM
C#Cc1cccc(Nc2ncnc3cc(OCCOC)c(OCCOC)cc23)c1 | inconclusive [inhibitor, partial curve]
Cc1ccc(S(=O)(=O)Nc2nc3ccccc3nc2Nc2ccc3nsnc3c2)cc1 | active: 20.6 µM
COc1cc(/C=C/C(=O)O[C@H]2CC[C@]34C[C@]35CC[C@]3(C)[C@@H]([C@H](C)CCC=C(C)C)CC[C@@]3(C)[C@@H]5CC[C@H]4C2(C)C)ccc1O | inconclusive [inhibitor, single point]
CNCCC=C1c2ccccc2CCc2ccccc21 | inconclusive [inhibitor, single point]
COc1cc(Nc2ncc(F)c(Nc3ccc4c(n3)N(COP(=O)(O)O)C(=O)C(C)(C)O4)n2)cc(OC)c1OC | inconclusive [inhibitor, single point]
Oc1cccc(-c2nc(N3CCOCC3)c3oc4ncccc4c3n2)c1 | active: 0.58 µM
CCn1c(-c2nonc2N)nc2cncc(CNC3CCNCC3)c21 | inconclusive [inhibitor, single point]
CC(=O)O[C@H]1C[C@@H]2CC[C@H]3[C@H]4C[C@H]([N+]5(C)CCCCC5)[C@@H](OC(C)=O)[C@@]4(C)CC[C@@H]3[C@@]2(C)C[C@H]1[N+]1(C)CCCCC1 | inactive
Cc1cnc(CNC(=O)c2c(=O)c3ccc(N4CCCN(C)CC4)nc3n3c2sc2ccccc23)cn1 | inconclusive [inhibitor, full curve]
COc1cc2ncnc(Nc3cccc(Cl)c3)c2cc1OC | inconclusive [inhibitor, single point]
